Laboratory results: PubChem BioAssay AID1159614 (National Center for Advancing Translational Sciences (NCATS), 2016)
The campaign covered roughly 45,000 compounds. About 65 (0.1%) were called active. The call rests on the fitted dose curve; in most records, active means well fitted activation curve with a large enough effect; inconclusive means small, poorly fitted or top-dose-only effect; inactive means no such curve, though single readings can be large or run the other way. Some of the results follow.

Target: Galactocerebrosidase (Homo sapiens) (UniProt P54803)
Experiment: A Novel Cell-Based Assay to Identify Small Molecules for B -Galactocerebrosidase; further: 0% is about no effect; nearly all actives have a fitted effect of over 65% in size
Settings: 145M-Twi-hGALC-G270D cells (Twitcher mouse brain line with human GALC G270D), HMU-beta-Gal fluorescence, 48 h; series mostly up to 57.5 µM; activation: at the top concentration
Procedure, shortened: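 Fluorogenic HMU-b-Gal hydrolysis (0.1 mM final, pH 5.2 citrate-phosphate with 1 mg/mL sodium taurocholate; carbonate stop buffer) measures mutant GALC activity after compound treatment of live 145M-Twi Twitcher brain cells stably carrying human GALC-G270D, with wild-type GALC line alongside; activation sought.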

UniProt P54803, sequence (P54803 whole entry, looked up): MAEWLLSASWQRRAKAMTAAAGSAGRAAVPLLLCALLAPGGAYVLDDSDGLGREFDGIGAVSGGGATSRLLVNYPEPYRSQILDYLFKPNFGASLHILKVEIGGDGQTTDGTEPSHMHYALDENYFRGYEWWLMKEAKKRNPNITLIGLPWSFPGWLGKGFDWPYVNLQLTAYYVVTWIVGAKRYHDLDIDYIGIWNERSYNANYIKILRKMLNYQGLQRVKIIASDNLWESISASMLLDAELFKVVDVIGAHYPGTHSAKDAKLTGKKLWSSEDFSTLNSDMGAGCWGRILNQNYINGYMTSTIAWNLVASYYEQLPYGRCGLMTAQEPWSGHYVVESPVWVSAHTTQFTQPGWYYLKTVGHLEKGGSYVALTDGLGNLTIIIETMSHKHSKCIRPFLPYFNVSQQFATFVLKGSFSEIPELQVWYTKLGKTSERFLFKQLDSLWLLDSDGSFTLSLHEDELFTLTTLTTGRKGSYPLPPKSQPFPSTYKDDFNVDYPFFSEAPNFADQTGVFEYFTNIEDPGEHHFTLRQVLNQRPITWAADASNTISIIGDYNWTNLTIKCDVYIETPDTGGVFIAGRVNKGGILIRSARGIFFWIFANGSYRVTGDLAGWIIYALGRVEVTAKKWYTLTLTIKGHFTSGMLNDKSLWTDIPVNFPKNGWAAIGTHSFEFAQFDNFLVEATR

Row | SMILES | activation
1 | CCOc1ccccc1NC(=O)C1CCN(S(=O)(=O)c2ccc3[nH]c4c(c3c2)CCCCC4)CC1 | inactive: -10.6%
2 | Cc1nn(C)c(C)c1S(=O)(=O)N(CC(=O)N1CCN(c2ccccc2)CC1)c1ccc(C(C)C)cc1 | inactive: -12.8%
3 | Cc1nc(-c2ccc(C)c(S(=O)(=O)N3CCC(C(=O)Nc4ccc(Cl)cc4)CC3)c2)no1 | inactive: -33.9%
4 | COc1ccc(NC(=O)c2sc3nc4c(cc3c2N)CCCCCC4)cc1OC | inactive: -10.3%
5 | Cc1ccccc1NC(=O)c1ccc(F)c(S(=O)(=O)N(C)C2CCCCC2)c1 | inactive: 0.182%
6 | CCCCCNC(=O)c1ccc2c(c1)nc(C)n2-c1cccc(C)c1 | inactive: -17.2%
7 | O=C(CCn1c(=O)c2cccn2c2ccccc21)Nc1ccc(F)cc1 | inactive: -7.98%
8 | COc1ccccc1NC(=O)c1cc2c([nH]c1=O)CC(C)(C)CC2=O | inactive: -9.44%
9 | Cc1cc(C)n(-c2nnc(Nc3cc(Cl)ccc3C)c3ccccc23)n1 | inactive: -9.23%
10 | O=C(NCc1cccs1)c1ccc(CSc2nc3cccnc3n2Cc2ccccc2)cc1 | inactive: -1.87%
11 | O=C1C2=C(Nc3ccccc3SC2c2ccccc2C(F)(F)F)c2ccccc21 (stereo not drawn) | inactive: -17%
12 | Cc1ccc(C)c(NC(=O)Cn2c(=O)ccc3cc(S(=O)(=O)N4CCCC4)ccc32)c1 | inactive: -18.6%
13 | COc1ccc(CNC(=O)C2CCN(S(=O)(=O)c3ccc(C)cc3)CC2)cc1 | inactive: 17.4%
14 | CCN1CCN(C(c2ccccc2)c2c(O)cc(C)n(Cc3ccco3)c2=O)CC1 (stereo not drawn) | inactive: -16.3%
15 | N#C/C(=C/c1ccc(Cl)cc1Cl)c1nc2ccccc2c(=O)[nH]1 | inactive: -11.6%
16 | CC1Cc2cc(S(=O)(=O)N(C)c3ccc(Br)cc3)ccc2N1C(=O)C1CC1 (stereo not drawn) | inactive: -13.5%
17 | Fc1ccc(Cc2cn3cc(-c4ccc(Cl)cc4)nc3s2)cc1 | inactive: -8.01%
18 | COc1ccc(NC(=O)C2CCCN(S(=O)(=O)c3cccs3)C2)cc1 (stereo not drawn) | inactive: -27.5%
19 | CCC1CCCCN1CCCNC(=O)c1cc2c(=O)n(CC)c3ccccc3c2s1 (stereo not drawn) | inactive: -14.6%
20 | CCOC(=O)c1nnn(CC(=O)NC(=O)Nc2cccc(CC)c2)c1C(=O)OCC | inactive: -15.2%
21 | CCN(CC)C(=O)c1sc2c(c1C)c(=O)n(-c1ccc(Cl)c(Cl)c1)c(=O)n2CC(=O)Nc1cccc(OC)c1 | inactive: -1.92%
22 | O=C(COc1ccc(Cl)cc1)NCCc1csc(-c2ccc(F)cc2)n1 | inactive: -4.19%
23 | COc1ccc(-c2nnc3c4ccccc4c(-c4ccccc4)nn23)cc1 | inactive: 4.2%
24 | CCOc1ccc(CCNC(=O)c2cccc(-n3c(C)nc4cccnc43)c2)cc1 | inactive: 1.47%

Row | SMILES | activation
25 | COC(=O)c1c(N)n(-c2ccc(OC)c(Cl)c2)c2nc3ccccc3nc12 | inactive: 0.895%
26 | O=C(Nc1ccccc1F)c1ccc(-c2ccccc2)s1 | inactive: 5.97%
27 | COc1ccc(Nc2ncc3c(n2)CCN(C(=O)OC(C)(C)C)C3)cc1 | inactive: -8.04%
28 | COc1ccccc1CN1CCN(C2CCN(C(=O)NC(C)C)CC2)C(=O)C1=O | inactive: -14%
29 | CN(Cc1ccc(C(C)(C)C)cc1)Cc1cccc2ccccc12 | inactive: -7.71%
30 | Cc1ccc(CCNC(=O)c2cc(-c3ccc(Cl)cc3)n[nH]2)cc1 | inactive: -19.2%
31 | Cc1ccc(Nc2cc(C(=O)NCc3cccs3)c3ccccc3n2)c(C)c1 | inactive: -11.9%
32 | Cc1ccc(NC(=O)Cc2coc3c(C)c(C)ccc23)cc1Cl | inactive: -17.8%
33 | Cc1ccc(NC(=O)c2ccc3[nH]c(C)cc(=O)c3c2)c(C)c1 | inactive: -15.6%
34 | COc1cc2ccccc2cc1C(=O)Nc1ccc2oc(-c3ccccc3)nc2c1 | inactive: -14.9%
35 | CCOc1ccccc1C(=O)N(Cc1cccs1)c1ccc(Cl)cc1 | inactive: -6.7%
36 | Cc1ccccc1CNC(=O)CCC(=O)N1CC2CCCN2c2ccccc21 (stereo not drawn) | inactive: 0.741%
37 | CCc1ccc2c(c1)-c1ccccc1S(=O)(=O)N2CC(=O)N1CCC(C)CC1 | inactive: -9.86%
38 | COc1cccc(Cn2c(CNS(=O)(=O)c3ccc4c(c3)CCCC4)nc3cccnc32)c1 | inactive: -3.26%
39 | CC1CCN(S(=O)(=O)c2ccc3c(c2)N(CC(=O)N2CCN(c4ccccc4)CC2)C(=O)CO3)CC1 | inactive: 2.4%
40 | COc1ccccc1CNc1ncnc2c1c(-c1ccccc1)cn2-c1cccc(C)c1 | inactive: -4.1%
41 | COc1ccccc1C(=O)Nc1nc2nc(C)c(Cc3ccccc3)c(=O)n2[nH]1 | inactive: -9.78%
42 | CC(=O)c1ccc(NC(=O)Cn2ncc3c(C)n(Cc4ccc(F)cc4)c(C)c3c2=O)cc1 | inactive: -15.1%
43 | CCN(CC)C(=O)CSc1nc2ccccc2c(=O)n1Cc1ccco1 | inactive: -5.86%
44 | CCCc1nccn1S(=O)(=O)c1cc(Br)ccc1OC | inactive: -21%
45 | COc1ccc(Cl)cc1NC(=O)N1CC(=O)Nc2sc3c(c2C1c1ccccc1)CCCC3 (stereo not drawn) | inactive: -13.8%
46 | Cc1ccc(NC(=O)Cn2c(-c3cncs3)nc3ccccc32)cc1Br | inactive: -9.31%
47 | COc1ccc(NC(=O)CN2C(=O)CCc3cc(S(=O)(=O)N4CCOCC4)ccc32)cc1Cl | inactive: -11.5%
48 | CCN(C(=O)Cn1c(=O)n(CC2CCC(C(=O)NC)CC2)c(=O)c2sccc21)c1ccccc1 (stereo not drawn) | inactive: -7.41%
